Data on 91 compounds can be found in publication PMC4336329 (PLoS ONE, 2015).

Out of some 310,000 compounds screened, about 14,000 (4.5%) showed an effect of 50% or more. The effect is printed as a negative number. The list shows a part of the results.
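Note: peak tail current of the secondary pulse compared with the same well before compound.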

human ether-à-go-go-related gene (hERG) potassium channel, sequence (Q12809 whole entry, looked up): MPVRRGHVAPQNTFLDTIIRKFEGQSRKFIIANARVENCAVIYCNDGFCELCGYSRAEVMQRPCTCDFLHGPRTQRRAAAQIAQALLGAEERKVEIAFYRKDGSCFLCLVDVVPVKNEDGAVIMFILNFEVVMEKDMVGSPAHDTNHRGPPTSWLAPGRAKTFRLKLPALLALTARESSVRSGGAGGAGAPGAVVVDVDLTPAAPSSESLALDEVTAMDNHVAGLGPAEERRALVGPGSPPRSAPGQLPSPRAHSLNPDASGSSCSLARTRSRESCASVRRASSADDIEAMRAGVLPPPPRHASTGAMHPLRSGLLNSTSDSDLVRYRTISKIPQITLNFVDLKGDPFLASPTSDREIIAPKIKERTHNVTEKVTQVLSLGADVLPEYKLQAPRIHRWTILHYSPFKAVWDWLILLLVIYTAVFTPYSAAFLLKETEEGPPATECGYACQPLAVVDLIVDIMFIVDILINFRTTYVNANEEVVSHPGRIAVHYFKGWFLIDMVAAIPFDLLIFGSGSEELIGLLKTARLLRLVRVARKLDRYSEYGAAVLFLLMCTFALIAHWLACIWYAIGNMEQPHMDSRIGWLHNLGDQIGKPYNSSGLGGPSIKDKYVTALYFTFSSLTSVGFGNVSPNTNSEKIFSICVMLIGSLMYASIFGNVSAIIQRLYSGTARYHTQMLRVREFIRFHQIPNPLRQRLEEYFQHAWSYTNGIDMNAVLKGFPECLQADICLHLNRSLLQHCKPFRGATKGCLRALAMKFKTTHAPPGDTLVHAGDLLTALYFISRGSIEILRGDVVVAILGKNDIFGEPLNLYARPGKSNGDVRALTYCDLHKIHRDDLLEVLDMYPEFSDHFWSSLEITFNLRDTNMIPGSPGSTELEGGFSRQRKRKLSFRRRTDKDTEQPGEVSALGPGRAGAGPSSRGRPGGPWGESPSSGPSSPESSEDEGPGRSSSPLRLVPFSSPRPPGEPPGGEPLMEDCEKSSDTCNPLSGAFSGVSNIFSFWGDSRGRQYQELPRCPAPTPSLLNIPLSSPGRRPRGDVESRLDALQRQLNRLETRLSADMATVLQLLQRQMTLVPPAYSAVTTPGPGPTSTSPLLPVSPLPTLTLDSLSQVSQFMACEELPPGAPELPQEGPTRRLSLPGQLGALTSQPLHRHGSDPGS

The assay concerns the target human ether-à-go-go-related gene (hERG) potassium channel (human, UniProt Q12809). Kind of assay: primary screen, population patch clamp on CHO cells stably expressing hERG.
On to `COc1ccc(C2NCCc3c2[nH]c2ccccc32)cc1CSc1nc2ccccc2s1.Cl` (stereo not shown), for which the “hERG current change (%, negative = inhibition) at 10uM” value is on record as -10.3%.
`COc1ccc(S(=O)(=O)N2CCCCC2)cc1NC(=O)c1ccc(CS(C)(=O)=O)cc1`: the “hERG current change (%, negative = inhibition) at 10uM” value came to 7.71%.
As for `CN1CCC(N(C)CC(O)c2ccccc2)CC1.O=C(O)C(=O)O` (stereo not shown), the “hERG current change (%, negative = inhibition) at 10uM” value is listed as -6.05%.
With `Cc1ccccc1CSCC(=O)Nc1c(C)n(C)n(-c2ccccc2)c1=O`, the “hERG current change (%, negative = inhibition) at 10uM” value is -11.4%.
Regarding `CCOC(=O)/C(C#N)=C/N1CCOCC1`, the “hERG current change (%, negative = inhibition) at 10uM” value is reported as -1.97%.
In the case of `O=C(c1cccc(C(F)(F)F)c1)N1CCC(=O)N(C(CO)Cc2ccccc2)CC1` (stereo not shown) it was 15.5%; in that of `Cc1ccc(CN2CCN(Cc3ccc(OCCO)cc3)CC2CCO)o1` (stereo not shown), 1.29%; in that of `C#CCOC(=O)CCCC(=O)NCCCCCCCC`, -9.97%.
For `CCOC(=O)c1ccc(NC(=O)NC2CC3CCC(C2)N3)cc1` (stereo not shown), the “hERG current change (%, negative = inhibition) at 10uM” value turned out to be 14.6%.
In the case of `CCN(CC)S(=O)(=O)c1ccc(OC)c(N)c1` it was 15.9%; in that of `O=C(NCc1ccc(F)cc1)c1cnc2sccn2c1=O`, -16.4%; in that of `COCCn1c(C)cc(C2=NNC(=Nc3ccc(F)cc3)SC2)c1C`, 0.617%.
Under `Cc1cc(S(=O)(=O)N2CCCC2)ccc1OCC(=O)Nc1ccc(C(N)=O)cc1` stands 19.4%.
In the case of `CCN1C(=O)/C(=C\N2CCCc3ccccc32)SC1=S` it was 6.43%; in that of `Cc1csc(=Nc2cccnc2)n1Cc1ccco1`, -0.17%.
With `CCN(C(=O)COC(=O)c1[nH]c(C)c(C(C)=O)c1C)c1c(N)n(Cc2ccccc2)c(=O)[nH]c1=O`, the “hERG current change (%, negative = inhibition) at 10uM” value came to 0.295%.
Under `COc1ccc(CCNC(=O)c2cnccn2)cc1` stands 10.8%.
Under `COc1ccc(C(=O)N/C(=C/c2ccco2)C(=O)N2CCCCCC2)cc1` stands -18.2%; under `COc1ccc(-n2c(SCC(=O)Nc3nc(C)cs3)nnc2-c2ccoc2C)cc1`, -81%.
In the case of `COc1cc(CCN2C(=O)c3cccc4cccc(c34)C2=O)c(S(=O)(=O)NCCCO)cc1OC` it was 3.81%; in that of `CS(=O)(=O)c1cnc(-c2ccccc2)nc1-c1ccccc1Cl`, -5.98%.
Regarding `CC(C)[C@@H](C(=O)N1CCN(C(=O)OC(C)(C)C)CC1)n1cc(CCO)nn1`, the “hERG current change (%, negative = inhibition) at 10uM” value is given as 8.11%.
Under `CC1=NN(c2nc3ccccc3[nH]2)C(=O)/C1=C/N(C)C` stands 2.03%.
Regarding `O=C(Nc1ccccc1)O/N=C1/CCCc2occc21`, the “hERG current change (%, negative = inhibition) at 10uM” value is 2.17%.
Under `CCCCc1cc(=O)oc2c(C)c(OCC(=O)N3CCCC3)ccc12` stands -64.8%.
In the case of `CCN(CC)CC1(O)CCN(C(=O)c2ccc(Cl)c(Cl)c2)CC1` it was -5.61%; in that of `O=S(=O)(c1ccc2ccccc2c1)N1CCCOC1`, 0.216%.
Under `CCOc1ccccc1NC(=O)N1CCC(c2nc3ccc(C)cc3[nH]2)CC1` stands -55.5%.
With `O=C(CN(C(=O)CCC(=O)Nc1nccs1)c1ccccc1F)NCCc1ccccc1`, the “hERG current change (%, negative = inhibition) at 10uM” value came out at 25.1%.
As for `CCOC(=O)CCc1c(C(=O)OCC)[nH]c(CC)c1C(=O)OCc1ccccc1`, the “hERG current change (%, negative = inhibition) at 10uM” value is reported as -17.2%.
In the case of `Cc1cccc(C)c1N=C1C(=O)Nc2ccccc21` it was 15.1%; in that of `CCOC(=O)C1CCCN(CCC(=O)Nc2cc(C)ccc2C)C1.Cl` (stereo not shown), -67.2%.
With `O=C1C=C(c2ccccc2)C[C@@H](c2ccc(Cl)cc2)C1`, the “hERG current change (%, negative = inhibition) at 10uM” value is recorded as 14.3%.
In the case of `Cc1ccc(N2C(=O)NC3(CCCCC3)C2=O)cc1` it was 9.24%; in that of `Cc1ccc(S(=O)(=O)c2nc(S(C)(=O)=O)sc2NCc2ccc3c(c2)OCO3)cc1`, -13.6%; in that of `Cn1cc([N+](=O)[O-])c(C(=O)N2CCN(Cc3ccc4c(c3)OCO4)CC2)n1`, 46.6%.
On to `O=C(NNS(=O)(=O)c1ccccc1)c1cnn(-c2ccccc2)c1-n1cccc1`, for which the “hERG current change (%, negative = inhibition) at 10uM” value is -9.66%.
In the case of `O=C(NCCCN1CCOCC1)c1ccc2c(=O)n(-c3ccc(F)c(Cl)c3)c(=S)[nH]c2c1` it was 9%; in that of `CCC(=O)N(CCC(c1ccco1)C(C)C)Cc1ccccc1` (stereo not shown), -7.5%; in that of `CCOCN(C(=O)Cn1c(COC)nc2ccccc21)c1c(C)cccc1CC`, -7.55%.
In the case of `CCN(CC)CCCN1C(=O)c2oc3ccccc3c(=O)c2C1c1cccc(OC)c1OC` (stereo not shown) it was -6.45%.
Under `Oc1ccc(-c2nccc(-c3cccs3)n2)cc1` stands -5.68%.
As for `Nc1cc(Cl)ccc1Oc1ccccc1`, the “hERG current change (%, negative = inhibition) at 10uM” value was -21.5%.
Under `O=C(CCC(=O)NNC(=O)COc1ccc(Br)cc1Br)NCc1ccccc1` stands 16.9%; under `CCc1nnc(NC(=O)c2ccc(Cl)c(S(=O)(=O)N3CCc4ccccc43)c2)s1`, 9.33%; under `CNc1ccc([N+](=O)[O-])cc1`, 7.82%.
Under `CNC(=O)NC(=O)COc1c(F)c(F)cc(F)c1F` stands 18.6%; under `COc1ccc(C(=O)NCCCc2ccccc2)cc1`, -1.98%; under `O=C(NCCCN1CCOCC1)c1ccc2c(c1)N(Cc1ccccc1F)C(=O)c1ccccc1S2=O` (stereo not shown), -3.82%.
In the case of `O=C(O)c1c[nH]c2ccc(F)cc2c1=O` it was 10.1%; in that of `O=C(Nc1ccccc1)OC1CCCCc2cccnc21` (stereo not shown), 2.42%.
In the case of `CC(C)CCN1CCN(Cc2cnc(N3CCCC3)s2)CC1CCO` (stereo not shown), the “hERG current change (%, negative = inhibition) at 10uM” value is listed as 2.89%.
In the case of `CC1Sc2ccc(S(=O)(=O)N3CCC(C(=O)Nc4cccc(Cl)c4)CC3)cc2NC1=O` (stereo not shown) it was 10.9%; in that of `O=C(CCCCCn1c(=S)[nH]c2ccc(Br)cc2c1=O)NCC1CCCO1` (stereo not shown), 5.29%.
Under `O=C(COC(=O)c1cc(=O)c2ccccc2o1)Nc1cc(Cl)ccc1Cl` stands 2.19%; under `CC(=O)Nc1ccc(NC(=O)CSc2ncnc3sc(C)c(C)c23)cc1`, 8.58%; under `CN(C(=O)c1ccc(Br)o1)C1(C)CCS(=O)(=O)C1` (stereo not shown), 13.4%.
Under `CC(=O)N/C(=C/C(C)C)c1ccccc1` stands 18.6%; under `Cc1noc(C)c1Cc1ccc(O)cc1`, 1.98%.
With `COc1ccc(S(=O)(=O)Nc2c(C)nc3nc[nH]n3c2=O)cc1`, the “hERG current change (%, negative = inhibition) at 10uM” value is reported as 25.4%.
Under `Cc1nc(-c2ccc(C(=O)N3CCOCC3)cc2)cs1` stands 3.92%.
For the compound `O=C(Cn1nc(C(F)F)cc1C1CC1)NCCC1=CCCCC1`, the “hERG current change (%, negative = inhibition) at 10uM” value is on record as -1.8%.
Under `Cc1cccc(Oc2ccccc2NC(=O)c2cnccn2)c1` stands -6.7%; under `Cc1noc(C)c1S(=O)(=O)N(Cc1ccccc1)C(C)C`, 5.31%; under `CCC(=O)c1ccc(OCCn2cnc3ccccc32)cc1.Cl`, -27.5%.
In the case of `O=C(CCCCCn1c(=S)[nH]c2cc3c(cc2c1=O)OCO3)N1CCN(C(=O)c2ccco2)CC1` it was -14.7%.
In the case of `Clc1ccc(-c2n[nH]c3c2Cc2ccccc2-3)cc1Cl` it was 22.4%; in that of `COc1ccc(-n2c(SCC(=O)NCc3ccco3)nc3sc4c(c3c2=O)CCN(C)C4)cc1`, -26.6%; in that of `CC(=O)c1c(C)[nH]c(C(=O)OCC(=O)c2c(N)n(CC(C)C)c(=O)n(C)c2=O)c1C`, 1.12%.
As to `CC1(C)Oc2ccc3ccc(=O)oc3c2/C(=C/Nc2cccc(O)c2)C1=O`, the “hERG current change (%, negative = inhibition) at 10uM” value stood at 14.2%.
Under `COc1ccc(SC[C@H](Cc2ccccc2)N2CC[C@@H](NC(=O)OCc3ccccc3)CCC2=O)cc1` stands -10.2%; under `O=C(Nc1ccc2c(c1)OCO2)c1ccc2nc[nH]c2c1`, -14%; under `NS(=O)(=O)c1ccc(NC(=O)NC2CCCCC2)cc1`, 4.96%.
In the case of `COC(=O)c1ccc(NC(=O)c2ccccc2C(=O)Nc2ccc(C(=O)OC)cc2)cc1` it was -2.55%; in that of `CCc1c(O)nc2ccccn2c1=O`, 0.476%.
In the case of `CC(=O)C1=C(C)Nc2ncnn2C1c1ccc(Cl)cc1` (stereo not shown) it was -2.58%.
On to `CN(CCCCOc1ccc(F)cc1)Cc1ccccc1.O=C(O)C(=O)O`, for which the “hERG current change (%, negative = inhibition) at 10uM” value was -54.7%.
In the case of `COC(=O)c1ccc(COC(=O)CCS(=O)(=O)c2ccc(C)cc2)cc1` it was -12.7%; in that of `Cc1cccc(OCc2nnc(SCCC(=O)O)n2-c2ccccc2)c1`, 15.5%.
As to `O=C(CCCn1c(=O)[nH]c2ccc(Br)cc2c1=O)NCc1ccc(Cl)cc1`, the “hERG current change (%, negative = inhibition) at 10uM” value worked out at 7.19%.
In the case of `O=C(c1noc2c1CCCC2)N1CCN(c2ccccc2)CC1`, the “hERG current change (%, negative = inhibition) at 10uM” value is -17.6%.
Take `O=C(CN1CCOCC1)OCCCc1ccccc1`: the “hERG current change (%, negative = inhibition) at 10uM” value was 9.77%.
In the case of `Cc1ccc(S(=O)(=O)/N=S(/C)c2ccccc2)cc1` (stereo not shown) it was 12.6%.
Under `C#CC(CC)(CC)NC(=O)c1c(C)noc1C` stands -10.9%.
In the case of `COc1cccc(CN2C(=O)c3cccc(N)c3C2=O)c1` it was -12.1%; in that of `COc1nc2ccccc2nc1N1CCN(c2ccc(F)cc2)CC1`, 17.5%; in that of `COc1ccc(/C=N\NC(=O)CNC(=O)C(c2ccccc2)c2ccccc2)cc1[N+](=O)[O-]`, -16.9%.
As for `COCCCNC(=O)c1ccc(NC(C)=O)cc1`, the “hERG current change (%, negative = inhibition) at 10uM” value is -0.918%.
In the case of `COc1ccc(-c2ccc(C3C(C#N)=C(N)Oc4n[nH]c(C)c43)o2)cc1` (stereo not shown) it was 21.8%; in that of `CC1(C)Cc2c(sc(NC(=O)C(=O)N3CCCC3)c2C(=O)O)CO1`, 15.6%; in that of `Cc1cc(C(=O)c2ccccc2)nc2ccccc12`, -3.13%.
